The record followed here is the supplement of paper PMC11741623.

B1: STK11, Q15831 (protein)
chain: MEVVDPQQLGMFTEGELMSVGMDTFIHRIDSTEVIYQPRRKRAKLIGKYLMGDLLGEGSYGKVKEVLDSETLCRRAVKILKKKKLRRIPNGEANVKKEIQLLRRLRHKNVIQLVDVLYNEEKQKMYMVMEYCVCGMQEMLDSVPEKRFPVCQAHGYFCQLIDGLEYLHSQGIVHKDIKPGNLLLTTGGTLKISDLGVAEALHPFAADDTCRTSQGSPAFQPPEIANGLDTFSGFKVDIWSAGVTLYNITTGLYPFEGDNIYKLFENIGKGSYAIPGDCGPPLSDLLKGMLEYEPAKRFSIRQIRQHSWFRKKHPPAEAPVPIPPSPDTKDRWRSMTVVPYLEDLHGADEDEDLFDIEDDIIYTQDFTVPGQVPEEEASHNGQRRGLPKAVCMNGTEAAQLSTKSRAEGRAPNPARKACSASSKIRRLSACKQQ
B2: XRCC2, O43543 (protein)
chain: MCSAFHRAESGTELLARLEGRSSLKEIEPNLFADEDSPVHGDILEFHGPEGTGKTEMLYHLTARCILPKSEGGLEVEVLFIDTDYHFDMLRLVTILEHRLSQSSEEIIKYCLGRFFLVYCSSSTHLLLTLYSLESMFCSHPSLCLLILDSLSAFYWIDRVNGGESVNLQESTLRKCSQCLEKLVNDYRLVLFATTQTIMQKASSSSEEPSHASRRLCDVDIDYRPYLCKAWQQLVKHRMFFSKQDDSQSSNQFSLVSRCLKSNSLKKHFFIIGESGVEFC
B3: CLDN14, O95500 (protein)
chain: MASTAVQLLGFLLSFLGMVGTLITTILPHWRRTAHVGTNILTAVSYLKGLWMECVWHSTGIYQCQIYRSLLALPQDLQAARALMVISCLLSGIACACAVIGMKCTRCAKGTPAKTTFAILGGTLFILAGLLCMVAVSWTTNDVVQNFYNPLLPSGMKFEIGQALYLGFISSSLSLIGGTLLCLSCQDEAPYRPYQAPPRATTTTANTAPAYQPPAAYKDNRAPSVTSATHSGYRLNDYV
B4: TINAG, Q9UJW2 (protein)
chain: MWTGYKILIFSYLTTEIWMEKQYLSQREVDLEAYFTRNHTVLQGTRFKRAIFQGQYCRNFGCCEDRDDGCVTEFYAANALCYCDKFCDRENSDCCPDYKSFCREEKEWPPHTQPWYPEGCFKDGQHYEEGSVIKENCNSCTCSGQQWKCSQHVCLVRSELIEQVNKGDYGWTAQNYSQFWGMTLEDGFKFRLGTLPPSPMLLSMNEMTASLPATTDLPEFFVASYKWPGWTHGPLDQKNCAASWAFSTASVAADRIAIQSKGRYTANLSPQNLISCCAKNRHGCNSGSIDRAWWYLRKRGLVSHACYPLFKDQNATNNGCAMASRSDGRGKRHATKPCPNNVEKSNRIYQCSPPYRVSSNETEIMKEIMQNGPVQAIMQVREDFFHYKTGIYRHVTSTNKESEKYRKLQTHAVKLTGWGTLRGAQGQKEKFWIAANSWGKSWGENGYFRILRGVNESDIEKLIIAAWGQLTSSDEP

The other results are listed elsewhere or left out. Interaction screen of human proteins with wild-type SARS-CoV-2 proteins by split-DHFR complementation in yeast, 1 µg/mL methotrexate. Value = fitness of the pair (three or more lineages) minus that of the viral protein without a human partner, on a scale set by negative (0) and fused positive (1) controls, mean of up to three cultures; higher = more likely to interact. Active = false discovery rate below 0.05 (one-sided t-test) in at least one culture. Nearly all pairs are not hits, and differences among them are mostly noise (correlation between cultures about 0.3); most hits were seen in one culture only. Human sequences are the Swiss-Prot entries looked up by gene name; the clone may be another isoform. NSP2 values were corrected by the authors for a growth advantage. Listed are human proteins with a hit and a random twelfth of the others.

The first assay deals with SARS-CoV-2 M. In words: yeast fitness gain over the viral ORF with no human partner (scaled fitness); higher = more likely to interact. On the procedure:
(§1)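 Split mouse DHFR complementation in pooled diploid yeast: human ORFeome clones carry one fragment and viral ORFs the other; barcoded lineages compete in 1 µg/mL methotrexate and fitness is read by barcode sequencing in up to three cultures.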
For B1, the yeast fitness gain was inactive: -0.093.

With B2, the yeast fitness gain was inactive: -0.128.

For B3, the yeast fitness gain is inactive: 0.085.

As for B4, the yeast fitness gain is inactive: -0.0491.

For the next assay, the target named is SARS-CoV-2 N. The description is as above. As to the method:
as §1
As for B1, the yeast fitness gain was inactive: 0.0335.

For another assay, the target named is SARS-CoV-2 NSP1. Described as above. As to the method:
as §1
Regarding B1, the yeast fitness gain was inactive: -0.0406.

As to B2, the yeast fitness gain is inactive: 0.098.

Consider B4, for which the yeast fitness gain was inactive: 0.0276.

In the next assay the target is SARS-CoV-2 NSP10. The assay is described as above. As to the method: as §1
For the molecule B1, the yeast fitness gain was inactive: -0.0835.

Regarding B2, the yeast fitness gain was inactive: -0.00151.

For the molecule B3, the yeast fitness gain was inactive: -0.119.

B4: the yeast fitness gain was inactive: 0.0763.

A further assay addresses SARS-CoV-2 NSP12. The description is as above. As to the method: as §1
For the molecule B1, the yeast fitness gain is inactive: -0.0424.

Take B2: the yeast fitness gain was inactive: -0.17.

On to B3, for which the yeast fitness gain is inactive: -0.0781.

On to B4, for which the yeast fitness gain was inactive: -0.04.

For the next assay, the target named is SARS-CoV-2 NSP13. The description is as above. As to the method: as §1
On to B1, for which the yeast fitness gain was inactive: -0.00495.

With B2, the yeast fitness gain is inactive: -0.0241.

For the molecule B3, the yeast fitness gain was inactive: 0.0553.

Take B4: the yeast fitness gain is inactive: -0.0108.

A further assay addresses SARS-CoV-2 NSP14. The assay is described as above. On the procedure: as §1
Regarding B1, the yeast fitness gain is inactive: -0.0261.

As to B2, the yeast fitness gain is inactive: 0.00472.

Consider B3, for which the yeast fitness gain is inactive: 0.0265.

For the molecule B4, the yeast fitness gain was inactive: -0.0445.

The next assay addresses SARS-CoV-2 NSP15. The assay is described as above. As to the method:
as §1
On to B1, for which the yeast fitness gain was inactive: -0.0329.

As to B2, the yeast fitness gain was inactive: -0.0878.

Consider B4, for which the yeast fitness gain is inactive: 0.0131.

Another assay deals with SARS-CoV-2 NSP2. Described as above. As to the method: as §1
For the molecule B1, the yeast fitness gain was inactive: -0.0173.

On to B2, for which the yeast fitness gain is inactive: -0.214.

For the molecule B3, the yeast fitness gain is inactive: -0.25.

Consider B4, for which the yeast fitness gain is inactive: -0.0758.

Another assay addresses SARS-CoV-2 NSP4. The description is as above. As to the method:
as §1
On to B1, for which the yeast fitness gain was inactive: 0.0758.

Turning to B3, the yeast fitness gain is inactive: -0.0645.

As to B4, the yeast fitness gain was inactive: 0.0344.

The target of a further assay is SARS-CoV-2 NSP5. The description is as above. As to the method: as §1
As to B1, the yeast fitness gain was inactive: -0.0272.

Take B2: the yeast fitness gain was inactive: 0.0116.

With B3, the yeast fitness gain was inactive: -0.0605.

Regarding B4, the yeast fitness gain was inactive: -0.0419.

For a further assay, the target named is SARS-CoV-2 NSP6. Described as above. On the procedure: as §1
For the molecule B1, the yeast fitness gain was inactive: 0.101.

For B2, the yeast fitness gain was inactive: 0.0535.

Turning to B3, the yeast fitness gain is inactive: -0.409.

As to B4, the yeast fitness gain is inactive: -0.0676.

The target in the next assay is SARS-CoV-2 NSP7. Described as above. On the procedure:
as §1
Consider B1, for which the yeast fitness gain is inactive: 0.0097.

With B2, the yeast fitness gain was inactive: -0.0729.

Turning to B3, the yeast fitness gain was inactive: 0.206.

Consider B4, for which the yeast fitness gain is inactive: 0.00038.

Another assay addresses SARS-CoV-2 NSP8. The assay is described as above. On the procedure:
as §1
With B1, the yeast fitness gain was inactive: -0.11.

For the molecule B2, the yeast fitness gain was inactive: 0.0783.

For the molecule B3, the yeast fitness gain is inactive: -0.0136.

In the case of B4, the yeast fitness gain is inactive: 0.102.

Another assay has as its target SARS-CoV-2 NSP9. The assay is described as above. On the procedure: as §1
For B1, the yeast fitness gain is inactive: -0.0264.

As for B3, the yeast fitness gain was inactive: -0.32.

In the case of B4, the yeast fitness gain was inactive: -0.0341.

Another assay concerns the target SARS-CoV-2 ORF10. The assay is described as above. As to the method:
as §1
With B1, the yeast fitness gain is inactive: 0.189.

For the molecule B2, the yeast fitness gain was inactive: 0.0642.

Turning to B3, the yeast fitness gain was inactive: 0.0869.

Take B4: the yeast fitness gain was inactive: 0.0779.

The next assay deals with SARS-CoV-2 ORF3A. Described as above. On the procedure: as §1
As for B1, the yeast fitness gain was inactive: -0.0652.

In a further assay the target is SARS-CoV-2 ORF3B. The description is as above. As to the method: as §1
Turning to B1, the yeast fitness gain is inactive: -0.13.

Take B2: the yeast fitness gain was inactive: 0.00722.

Take B3: the yeast fitness gain is inactive: 0.0149.

On to B4, for which the yeast fitness gain was inactive: 0.028.

For another assay, the target named is SARS-CoV-2 ORF6. The description is as above. On the procedure: as §1
Turning to B1, the yeast fitness gain was inactive: 0.0288.

In the case of B2, the yeast fitness gain is inactive: 0.0179.

As for B3, the yeast fitness gain is inactive: -0.0554.

On to B4, for which the yeast fitness gain is inactive: -0.0122.

In another assay the target is SARS-CoV-2 ORF7A. Described as above. On the procedure:
as §1
On to B1, for which the yeast fitness gain was inactive: 0.0171.

For the molecule B2, the yeast fitness gain is inactive: -0.112.

Take B3: the yeast fitness gain was inactive: 0.0733.

Take B4: the yeast fitness gain was inactive: -0.0112.

The next assay concerns the target SARS-CoV-2 ORF7B. Described as above. As to the method:
as §1
Turning to B1, the yeast fitness gain is inactive: 0.0127.

Turning to B2, the yeast fitness gain is inactive: 0.103.

Regarding B3, the yeast fitness gain is inactive: -0.0276.

For B4, the yeast fitness gain was inactive: 0.0168.

In a further assay the target is SARS-CoV-2 ORF8. The assay is described as above. On the procedure: as §1
Take B1: the yeast fitness gain is inactive: 0.0106.

Turning to B2, the yeast fitness gain was inactive: -0.00505.

With B3, the yeast fitness gain was inactive: -0.0193.

With B4, the yeast fitness gain is inactive: 0.012.

In the next assay the target is SARS-CoV-2 ORF9B. The description is as above. As to the method:
as §1
B1: the yeast fitness gain was inactive: -0.0599.

Regarding B2, the yeast fitness gain was inactive: -0.0447.

In the case of B3, the yeast fitness gain was inactive: -0.0587.

As to B4, the yeast fitness gain was inactive: 0.03.

The next assay deals with SARS-CoV-2 ORF9Bwu (the 73-codon ORF). Described as above. On the procedure: as §1
In the case of B1, the yeast fitness gain is inactive: 0.0929.

Regarding B3, the yeast fitness gain is inactive: -0.0359.

B4: the yeast fitness gain is inactive: -0.113.

The target in another assay is SARS-CoV-2 S. The assay is described as above. As to the method: as §1
As for B1, the yeast fitness gain was inactive: -0.0563.

Regarding B2, the yeast fitness gain is inactive: -0.0328.

Turning to B3, the yeast fitness gain is inactive: -0.0651.

Regarding B4, the yeast fitness gain was inactive: -0.111.

A further assay concerns the target SARS-CoV-2 NSP16. The assay is described as above. On the procedure: as §1
Consider B2, for which the yeast fitness gain is inactive: 0.108.

Turning to B3, the yeast fitness gain is inactive: 0.0733.

As to B4, the yeast fitness gain is inactive: -0.0819.
